According to publication PMC6664820, “Novel natural and synthetic inhibitors of solute carriers SGLT1 and SGLT2” (Pharmacology Research & Perspectives, 2019):
The whole screen tested about 1,900 compounds, of which about 40 (2%) showed an effect of 50% or more. The list shows a part of the results.

molecular target: human SGLT1 (hSGLT1) (human, UniProt P13866); assay: primary screen, percent of control activity; higher = less effect of the substance; design: single well; conditions: 50 µM
Summary of the method: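 Single-point screen at 50 µmol/L in CHO-hSGLT1 cells, with 160 µmol/L 1-NBD-glucose in glucose-free DMEM for 90 min at 37°C. Fluorescence from isopropanol extracts was calibrated, and CHO wild-type uptake was subtracted. Data are percent of uptake without compound.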

Row | Structure (SMILES) | NORMALIZED SGLT1 ACTIVITY (%)
1 | CC(CCC(=O)O)[C@H]1CCC2C3CC[C@@H]4CCCC[C@]4(C)C3CC[C@@]21C (stereo partly drawn) | 71
2 | Cc1cc2nc3c(=O)[nH]c(=O)nc-3n(C[C@H](O)[C@H](O)[C@H](O)CO)c2cc1C | 130
3 | CC(C)NNC(=O)c1ccncc1.O=S(=O)(O)O | 85
4 | NCC(CC(=O)O)c1ccc(Cl)cc1 (stereo not drawn) | 92
5 | COc1cc(C)c(C(=O)Oc2cc(C)c(C(=O)O)c(O)c2C)c(OC)c1C | 440
6 | Cc1cc(=O)oc2c(O)c(O)ccc12 | 197
7 | CC(=O)[C@@]1(O)CC[C@H]2[C@@H]3CCC4=CC(=O)CC[C@]4(C)[C@H]3CC[C@@]21C | 128
8 | CC1=CC(=O)C2C(C)(C)CCC[C@]2(C)[C@@]1(O)CCc1ccoc1 (stereo partly drawn) | 147
9 | C[C@H]1[C@H](C)CC[C@]2(C(=O)O)CC[C@]3(C)C(=CC[C@@H]4[C@@]5(C)CC[C@H](O)C(C)(C)[C@@H]5CC[C@]43C)[C@H]12 | 84
10 | COc1ccccc1N1CCN(CCCNc2cc(=O)n(C)c(=O)n2C)CC1.Cl | 115
11 | CC(C)(C)C(=O)C(Oc1ccc(Cl)cc1)n1cncn1 (stereo not drawn) | 55
12 | CC(=O)OC1CCC2(O)CC1(C)CCC1C2CC1(C)C (stereo not drawn) | 87
13 | COc1ccc(C(Cl)=C(c2ccc(OC)cc2)c2ccc(OC)cc2)cc1 | 108
14 | CC(NCCc1ccc(O)cc1)C(O)c1ccc(O)cc1.Cl (stereo not drawn) | 109
15 | CC(=O)O.Cc1cc2c(C(C)C)c(O)c(O)c(C=O)c2c(O)c1-c1c(C)cc2c(C(C)C)c(O)c(O)c(C=O)c2c1O | 139
16 | NCCCCCC(=O)O | 113
17 | COc1cc(/C=C/C(=O)O)cc(OC)c1OC | 145
18 | CC[C@@]1(O)C[C@H](O[C@H]2C[C@H](N(C)C)[C@H](O[C@H]3C[C@H](O)[C@H](O[C@H]4CCC(=O)[C@H](C)O4)[C@H](C)O3)[C@H](C)O2)c2c(cc3c(c2O)C(=O)c2c(O)cccc2C3=O)[C@H]1C(=O)OC | 120
19 | Cc1cc(=O)oc2cc(O)cc(O)c12 | 255
20 | CC(=O)O[C@]1(C(C)=O)CC[C@H]2[C@@H]3C=C(Cl)C4=CC(=O)CC[C@]4(C)[C@H]3CC[C@@]21C | 88
21 | CCCNC(=O)NS(=O)(=O)c1ccc(Cl)cc1 | 102

Row | Structure (SMILES) | NORMALIZED SGLT1 ACTIVITY (%)
22 | COC(=O)c1cc(OC)c(=O)c2c(OC)c(OC)ccc2c1 | 257
23 | CO[C@H]1/C=C/O[C@@]2(C)Oc3c(C)c(O)c4c(O)c(c5c(nc6cc(C)ccn65)c4c3C2=O)NC(=O)/C(C)=C\C=C\[C@H](C)[C@H](O)[C@@H](C)[C@@H](O)[C@@H](C)[C@H](OC(C)=O)[C@@H]1C | 127
24 | Cl.Cl.NNCc1cccc(O)c1 | 149
25 | Cn1nnnc1SCC1=C(C(=O)[O-])N2C(=O)C(NC(=O)C(O)c3ccccc3)C2SC1.[Na+] (stereo not drawn) | 150
26 | Cc1ccc(S(=O)(=O)NC(=O)NN2CCCCCC2)cc1 | 97
27 | CC(C)c1ccc2c(c1O)CC[C@H]1C3=C(CC[C@]21C)C(=O)OC3 | 118
28 | Nc1ccc(S(=O)(=O)Nc2ncccn2)cc1 | 116
29 | CC(=O)O[C@@H]1CC2C(C)(C)C(=O)CC[C@]2(C)C2CC[C@]3(C)C(=CC(=O)O[C@H]3c3ccoc3)[C@@]21C (stereo partly drawn) | 250
30 | CCC[C@@H]1C[C@@H](C(=O)N[C@H]([C@H]2O[C@H](SC)[C@H](O)[C@@H](O)[C@H]2O)[C@H](C)O)N(C)C1.Cl | 123
31 | CC(C(=O)O)c1cccc(C(=O)c2ccccc2)c1 (stereo not drawn) | 156
32 | CCC(=O)OCC(=O)[C@@]1(OC(=O)CC)[C@@H](C)CC2C3CCC4=CC(=O)C=C[C@]4(C)C3(F)[C@@H](O)C[C@@]21C (stereo partly drawn) | 126
33 | Nc1ccc(S(=O)(=O)Nc2ccccn2)cc1 | 97
34 | CN(CCOc1ccc(CC2SC(=O)NC2=O)cc1)c1ccccn1.O=C(O)/C=C\C(=O)O (stereo not drawn) | 246
35 | C[C@]12CC[C@@H](O)C[C@H]1CCc1ccccc12 | 172
36 | CC(C)OC(=O)C(C)(C)Oc1ccc(C(=O)c2ccc(Cl)cc2)cc1 | 59
37 | CC(C)CC(NC(=O)OCC1c2ccccc2-c2ccccc21)C(=O)O (stereo in doubt) | 223
38 | CCCCCC1C(=O)CCC1CC(=O)OC (stereo not drawn) | 109
39 | O=C(O)CCNC(=O)c1ccccc1 | 105
40 | COc1cc2c3cc1Oc1cc(ccc1O)C[C@@H]1c4c(cc(OC)c(O)c4Oc4ccc(cc4)C[C@@H]3N(C)CC2)CC[N+]1(C)C.[Cl-] | 96
41 | COc1cc(O)c(C(C)=O)c(OC)c1 | 107
42 | CCCCC/C=C\C/C=C\C/C=C\C/C=C\CCCC(=O)O | 182
